# From PubChem BioAssay AID894 (National Center for Advancing Translational Sciences (NCATS), 2007)
# Among all 150,000 compounds or so, about 6,500 (4.3%) were called active. The inconclusive results got no clear call from the source; some entries with a clear call stand among them for comparison. Calls come from the whole dose curve; as a rule, active = well fitted inhibition curve with a large enough effect (not every such curve was filed as active); inconclusive = small, poorly fitted or top-dose-only effect, or another doubt; inactive = no such curve, though single readings can be large or run the other way. Potencies of inconclusive entries are left out as doubtful fits.
# Target: 15-hydroxyprostaglandin dehydrogenase [NAD(+)] (Homo sapiens) (UniProt P15428)
# Assay: qHTS Assay for Inhibitors of HPGD (15-Hydroxyprostaglandin Dehydrogenase)
# Settings: purified HPGD, NADH fluorescence kinetic, PGE2 substrate; activity change, negative = inhibition: hits give low values
# Procedure, shortened: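 20 nM HPGD preincubated 15 min at room temperature with compound in 50 mM Tris-HCl pH 8, 0.01% Tween 20. Started with 1 mM NAD+ and 30 uM prostaglandin E2; NADH fluorescence (360/450 nm) read 5 times over 30-s intervals, last minus first.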
# % is set by controls: 0 for no effect and ±100 for the full control effect; potency is the fitted concentration of half-maximal effect; tags give direction and shape of the fitted curve.
# Sequence of UniProt P15428 (P15428 whole entry, looked up): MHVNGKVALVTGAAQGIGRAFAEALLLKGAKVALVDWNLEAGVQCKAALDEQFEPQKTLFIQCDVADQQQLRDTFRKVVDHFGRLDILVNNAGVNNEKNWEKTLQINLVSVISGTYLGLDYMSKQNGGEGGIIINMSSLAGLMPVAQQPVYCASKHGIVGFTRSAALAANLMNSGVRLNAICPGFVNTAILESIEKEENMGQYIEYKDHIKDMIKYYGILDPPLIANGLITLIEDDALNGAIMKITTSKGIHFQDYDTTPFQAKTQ
SMILES,"activity change, negative = inhibition",Potency
Cc1cccc(NC2=C(NCCO)C(=O)c3ccccc3C2=O)c1,inactive: -5.85%,
COc1ccc(C2CC(=O)c3ccc(OC)cc3O2)cc1 (stereo not given),inactive: -11.6%,
N#Cc1ccc2ccn(CC(=O)NC3CCCCC3)c2c1,,"inconclusive [inhibitor, partial curve]"
C/C=C/C(=O)Nc1cccc(C(F)(F)F)c1,inactive: 4.64%,
NC(=S)N/N=C/c1ccc(-c2cccc([N+](=O)[O-])c2)o1,,active: 15.8 µM
CCc1nc(NC2CCCCC2)c(C#N)c2c1COC(C)(C)C2,,"inconclusive [inhibitor, partial curve]"
CCCNCC(O)Cn1c2ccccc2n2c(=O)cc(C)c(C#N)c12 (stereo not given),,"inconclusive [inhibitor, partial curve]"
COc1cc(OC)c(C2C(C#N)=C(N)Oc3cc(C)n(CCCN4CCOCC4)c(=O)c32)cc1OC (stereo not given),inactive: -10.3%,
COC(=O)CSc1nc(-c2ccccc2)cc(-c2ccco2)c1C#N,,"inconclusive [inhibitor, partial curve]"
CCCC(=O)c1ccc(-c2ccccc2)cc1,,active: 7.08 µM
CCN(CC)S(=O)(=O)c1ccc2oc(C(=O)NCc3ccc(C)cc3)c(C)c2c1,,"inconclusive [inhibitor, partial curve]"
COc1ccc(CCNC(=O)c2cc(-c3cccs3)on2)cc1OC,inactive: -7.47%,
O=C(Nc1ccccc1N1CCN(c2ccc(F)cc2)CC1)c1ccccc1,,"inconclusive [inhibitor, partial curve]"
N#C/C(C(=O)c1ccccc1)=C1/CCCCCN1,,"inconclusive [inhibitor, partial curve]"
Cc1ccccc1CS(=O)(=O)c1nnc([C@H](CC(C)C)NC(=O)OC(C)(C)C)o1,,active: 12.6 µM
C/C(CC(=O)Nc1ccc(F)cc1)=N\NC(=O)COc1ccccc1,inactive: -3.18%,
Cc1cc(N2CCCCC2)nc2ccc(Cc3ccc4nc(N5CCCCC5)cc(C)c4c3)cc12,,"inconclusive [inhibitor, partial curve]"
CC(=O)O[C@H]1CC[C@@]2(C)[C@@H](CC[C@H]3[C@H]2CC(=O)[C@@]2(C)[C@@H]3C[C@H]3CC(C)=CC(=O)[C@H]32)C1,inactive: -0.898%,
O=C(Nc1ccccc1C(=O)NCc1ccccc1)c1ccccc1,,"inconclusive [inhibitor, single point]"
COc1ccc(C2CC(=O)C3=C(C2)NC(C)=C(C#N)C3c2ccc(N(C)C)cc2)cc1 (stereo not given),,"inconclusive [inhibitor, partial curve]"
CCO/C(C)=N/n1c2nc3ccccc3nc2c2c(=O)n(Cc3ccccc3Cl)c(C)nc21,,"inconclusive [inhibitor, partial curve]"
Nc1cccc(-c2nc3ccccc3[nH]2)c1,,"inconclusive [inhibitor, partial curve]"
Cc1nn(Cc2ccccc2)c(C)c1NC(=O)CSc1nc(-c2ccccc2)nc2c1cnn2-c1ccccc1,,"inconclusive [inhibitor, partial curve]"

SMILES,"activity change, negative = inhibition",Potency
CCN(CC)c1ccc(/C=N/NC(=O)C(O)(c2ccccc2)c2ccccc2)o1,,"inconclusive [inhibitor, single point]"
CCc1c2c(nc3ccc(OC(=O)N4CCC(N5CCCCC5)CC4)cc13)-c1cc3c(c(=O)n1C2)COC(=O)[C@]3(O)CC,,"inconclusive [inhibitor, partial curve]"
CCn1c(COc2ccc(C)cc2)nnc1SCC(=O)C(C)(C)C,inactive: -7.73%,
CCCc1cc(C(=O)Nc2ccccc2SC)no1,,active: 22.4 µM
CCOC(=O)c1cc(-c2cccs2)nc2onc(C)c12,,"inconclusive [inhibitor, partial curve]"
COc1cccc(-c2cn3nc(C)c(C)nc3n2)c1,,"inconclusive [inhibitor, partial curve]"
COc1ccc(OC)c(C(C)NC=O)c1 (stereo not given),inactive: 0.331%,
O=C(c1ccco1)N1CCN(c2ncnc3c2nnn3Cc2ccccc2Cl)CC1,,active: 35.5 µM
CN(C)c1nc(NCc2ccccc2)nc(N/N=C/c2ccc3c(c2)OCO3)n1,,"inconclusive [inhibitor, single point]"
CCOC(=O)C1CCN(S(=O)(=O)c2cccc(-c3cn4cc(Cl)ccc4n3)c2)CC1,,"inconclusive [inhibitor, partial curve]"
Cn1ccnc1SCC(=O)c1ccc(Br)cc1,,"inconclusive [inhibitor, single point]"
Nc1[nH]c(N=NC(=O)c2ccc(F)cc2)c2ccccc12,,"inconclusive [inhibitor, partial curve]"
Cc1ccc(C)c(Cn2nnc3c(=O)[nH]c(C(=O)NCC4CCCO4)nc32)c1 (stereo not given),,active: 1.26 µM
Cc1ccc(NC2c3ncccc3C(=O)N2c2ccccc2C)cc1C (stereo not given),,active: 15.8 µM
c1ccc(-c2csc3nnc(SCc4ccc5c(c4)OCO5)n23)cc1,,active: 22.4 µM
COc1ccc(OC)c(/C=C/C(=O)N(C)CC(=O)Nc2ccc(C)cc2)c1,,"inconclusive [inhibitor, partial curve]"
COc1ccc(-c2cnnn2-c2ccc(NC(=O)/C=C/c3ccc(OC)c(OC)c3)cc2)cc1,,"inconclusive [inhibitor, partial curve]"
O=C(NC1CC1)c1cc2c(s1)-c1ccccc1OC2,,"inconclusive [inhibitor, partial curve]"
COc1ccc(OC)c(C(=O)CSc2nnnn2C)c1,inactive: -27.3%,
CCN(Cc1ccccc1)C(=O)CCc1nc(-c2ccc(C)cc2)no1,,"inconclusive [inhibitor, partial curve]"
COC(=O)c1ccc(Cl)cc1NC(=O)/C=C/c1ccc(C)o1,,"inconclusive [inhibitor, partial curve]"
CC(C)(C)OC(=O)N1CC2Cc3[nH]c(=O)ccc3C(C2)C1 (stereo not given),inactive: -27.6%,
